Source: PubChem BioAssay AID1345082 (National Center for Advancing Translational Sciences (NCATS), 2018)
The campaign covered roughly 94,000 compounds. About 4,000 (4.3%) were called active. Inconclusive means that the source gave no clear call. Such entries were picked first, then a sample of the others. Calls come from the whole dose curve; as a rule, active = well fitted inhibition curve with a large enough effect; inconclusive = small, poorly fitted or top-dose-only effect; inactive = no such curve, though single readings can be large or run the other way. Where the call is inconclusive, the potency comes from a doubtful curve fit.

Assay: Cytotoxic Profiling in NIH 3T3 Cell Line of Diverse Libraries Using Quantitative High-Throughput Screening; note: nearly all actives have a fitted effect of over 55% in size
Conditions: NIH 3T3 viability, CellTiter-Glo ATP luminescence, 48-72 h; activity change, negative = cytotoxicity: at 96.7 µM (top of the series); series mostly up to 96.7 µM
How it was run: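 Cytotoxicity was measured by CellTiter-Glo ATP luminescence after 48 or 72 h compound exposure at 37 °C. Mouse NIH 3T3 fibroblasts were seeded at 400 cells/well and dosed by 23 nL pin transfer.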
% is set by controls: 0 for no effect and ±100 for the full control effect; potency is the fitted concentration of half-maximal effect; tags give direction and shape of the fitted curve.

Row | Compound | outcome | activity change, negative = cytotoxicity | Potency
1 | Cc1ccccc1NC(=O)N1CCC(N(CCC(C)C)C2CCOCC2)CC1 | inactive |  | 
2 | CCOc1ccc(NC(=O)Cn2c(N3CCOCC3)nc(COC)cc2=O)cc1 |  | inactive: -25% | 
3 | O=C(CNC(=O)c1ccc(-c2cccc(C(F)(F)F)c2)cc1)NCc1ccc(C(F)(F)F)cc1 |  |  | inconclusive: 44.7 µM [inhibitor, partial curve, poor fit]
4 | CN1CCN(C(=O)c2nc3sccn3c2-c2ccccc2)CC1 |  | inactive: -2.55% [at 138 µM] | 
5 | COCCNC(=O)C1CCN(Cc2ccccc2-c2cccnc2)CC1 |  | inactive: -0.868% [at 138 µM] | 
6 | O=C(C1CCCCC1)N1CCC2(CC1)CC(N(Cc1ccc(F)cc1)C1CC1)CCO2 (centres undefined) |  |  | inconclusive: 44.7 µM [inhibitor, partial curve, poor fit]
7 | O=C1CCCCC(C(=O)N2CCc3ccccc3C2)N1 (centres undefined) | inactive |  | 
8 | COCc1nc(C2CC(N)C2)cc(N(C)Cc2nc3ccccc3c(=O)[nH]2)n1 (centres undefined) |  |  | inconclusive: 35.5 µM [inhibitor, full curve, poor fit]
9 | CCC1(N2CCN(C(=O)c3ccc(Cl)cc3OC)CC2)CCN(C(=O)NC)C1 (centres undefined) |  | inactive: -25.3% | 
10 | COc1cccc(C(=O)N2CCC(C(=O)N3CCC(c4ccccc4)CC3)CC2)c1 |  |  | inconclusive: 44.7 µM [inhibitor, partial curve, poor fit]
11 | CCCNC(=O)CCc1ccc2c(c1)CN(C(=O)NCC)CCO2 |  | inactive: -11.6% | 
12 | Nc1cc(C(=O)N2CCc3onc(-c4ccc(-c5ccccc5)cc4)c3C2)[nH]n1 |  |  | inconclusive: 25.1 µM [inhibitor, partial curve, poor fit]
13 | O=C(NC[C@H]1Cn2c(-c3ccc(Cl)cc3)cnc2CO1)c1cccnc1 |  |  | inconclusive: 14.1 µM [inhibitor, full curve, poor fit]
14 | COc1ccc(NC(=O)c2ccnc(-c3nnc4ccc(Nc5ccccc5)nn34)c2)cn1 |  |  | inconclusive: 31.6 µM [inhibitor, partial curve, poor fit]
15 | Cc1ccc(CN2CCc3nc(N4CCOCC4)[nH]c(=O)c3CC2)s1 |  |  | inconclusive: 35.5 µM [inhibitor, partial curve]
16 | CCOc1cc(C(=O)N2CCCN(c3cc(-c4ccccc4)[nH]n3)CC2)cc(OCC)c1OCC |  | inactive: -8.89% | 
17 | O=C(NCc1ccc(Cl)cc1)[C@@H]1Cc2nc[nH]c2CN1C(=O)NC1CCCCC1 |  | inactive: -1.7% [at 174 µM] | 
18 | O=C(Cc1cccc(F)c1)N1CCOc2ccc(CN3CCc4ccccc4C3)cc2C1 |  |  | inconclusive: 50.1 µM [inhibitor, partial curve, poor fit]
19 | CN1CCOc2nc(-c3ccc(Oc4ccccc4)cc3)ncc2C1=O |  |  | inconclusive: 39.8 µM [inhibitor, partial curve, poor fit]
20 | CC1CCCCN1C(=O)C(NC(=O)c1cccs1)C1CCN(C(=O)C2CCCC2)CC1 (centres undefined) |  |  | inconclusive: 56.2 µM [inhibitor, partial curve, poor fit]

Row | Compound | outcome | activity change, negative = cytotoxicity | Potency
21 | O=C(Cn1nc2c(cc1=O)CCCC2)NCc1nnc2ccccn12 |  | inactive: 2.59% | 
22 | COc1ccc(NC(=O)Cn2c(C)cc3nc4n(c(=O)c32)CCCCC4)cc1Cl |  |  | inconclusive: 44.7 µM [inhibitor, partial curve, poor fit]
23 | COc1cccc([S+](=O)([O-])NC[C@@H]2CC[C@H]3C[C@@H]2C3(C)C)c1 |  |  | inconclusive: 79.4 µM [inhibitor, partial curve, poor fit]
24 | COC1CN(c2cccc(F)c2)C12CCN(S(=O)(=O)c1cccc(F)c1)CC2 (centres undefined) |  |  | inconclusive: 50.1 µM [inhibitor, partial curve, poor fit]
25 | CNC(=O)CCn1ncc2cc(OCc3ccccc3-c3cccc(OC)c3)ccc21 |  |  | inconclusive: 56.2 µM [inhibitor, partial curve, poor fit]
26 | Cn1cccc1CN1CCC2(C1)C(=NC1CCCCC1)NC(=O)N2c1cccnc1 (centres undefined) |  |  | inconclusive: 70.8 µM [inhibitor, single point]
27 | O=C(Cc1ccc(F)cc1)N1CCC2(CC1)NC(=O)N(c1ccc(F)cc1)N2 |  |  | inconclusive: 44.7 µM [inhibitor, partial curve, poor fit]
28 | Cc1nn(CCC(=O)N[C@H]2CC[C@H]2NC2CCCCC2)c(C)c1C |  |  | inconclusive: 89.1 µM [inhibitor, partial curve, poor fit]
29 | COc1ccc(CN2CC3(CCN(S(=O)(=O)c4ccccc4Cl)CC3)C2=O)cc1 |  |  | inconclusive: 39.8 µM [inhibitor, partial curve, poor fit]
30 | COc1cccc(F)c1-c1ccc(COc2ccc3c(cnn3CCC(=O)O)c2)cc1 |  |  | inconclusive: 63.1 µM [inhibitor, partial curve, poor fit]
31 | Cc1cc(C(=O)N[C@H]2[C@H](O)[C@H](O)C[C@@H]2c2ccc(N3CCOCC3)nc2)n(C)n1 |  | inactive: -10.3% [at 174 µM] | 
32 | Cc1cc2cc(-c3c(C)noc3C)nc(Nc3ccn(C)n3)c2o1 |  |  | inconclusive: 14.1 µM [inhibitor, full curve, poor fit]
33 | FC(F)(F)Oc1ccc(CNC2(Cc3cc(-c4ccccn4)on3)COC2)cc1 |  | inactive: -21.7% [at 138 µM] | 
34 | CSc1cccc(NC(=O)N2CCC3(CCC(=O)N(C4CC4)C3)CC2)c1 |  |  | inconclusive: 39.8 µM [inhibitor, partial curve, poor fit]
35 | Cc1nn(-c2ccccc2)c2c1C(C(C)C)N(C1CCCN(C(=O)Nc3ccc(Cl)cc3)C1)C2=O (centres undefined) |  |  | inconclusive: 39.8 µM [inhibitor, partial curve]
36 | Cn1nccc1C(=O)N1CC(COc2ccccc2)C2(C1)CN(c1ccccc1)C2 (centres undefined) |  |  | inconclusive: 100 µM [inhibitor, partial curve, poor fit]
37 | CC(=O)NC[C@H]1COCc2nc3cc(F)ccc3n21 |  |  | inconclusive: 100 µM [inhibitor, partial curve, poor fit]
38 | O=C(CN1Cc2nc(OCC3CC3)ccc2OCC1=O)N1CCCC1 |  |  | inconclusive: 100 µM [inhibitor, partial curve, poor fit]
39 | Cc1ccc(C(=O)N2CCCC(c3nc(CCOCC4CC4)no3)C2)s1 (centres undefined) |  |  | inconclusive: 44.7 µM [inhibitor, partial curve, poor fit]
